Reference: a collection of fitness landscapes (doi:10.1016/j.celrep.2020.107928)
Over roughly 81,000 sequences, “one-hybrid fitness for binding parS DNA” has its median near -0.17; the highest 2% begin near 0.51. Some of the results follow.

B1: Caulobacter ParB omega fusion; a variant is named by its letters at X, in order, B8GW30 (parent)
chain: MESVVVGEPGMSEGRRGLGRGLSALLGEVDAAPAQAPGEQLGGSREAPIEILQRNPDQPRRTFREEDLEDLSNSIREKGVLQPILVRPSPDTAGEYQIVAGERAWRAAQRAGLKTVPIMVRELDDLAVLEIGIIENVQRADLNVLEEALSYKVLMEKFERTQENIAQTIGKSXSHVANXMRLLXLPDEVQSYLVSGELTAXHARAIAAAADPVALAKQIIEGGLSVRETEALARKAPNLSAGKSKGGRPPRVKDTDTQALESDLSSVLGLDVSIDHRGSTGTLTITYATLEQLDDLCNRLTRGI

Variants of: B1
Assay: one-hybrid fitness for binding parS DNA (scaled: cognate 1, non-cognate 0); higher = stronger binding
Conditions: with parS DNA site
Summary of the method: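 Fitness here means the log change in variant-to-wild-type read ratio between plasmids sequenced before and after selection. That scale was set so cognate equals 1 and non-cognate equals 0. The selection was a bacterial one-hybrid screen of Caulobacter ParB libraries, four specificity codons randomised, in E. coli USO carrying a HIS3 reporter with the site 19 bp from the promoter, grown 48 hours at 37°C on M9-minus-histidine with 0.1 mM IPTG and 5 mM 3-AT.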

Row | Variant | one-hybrid fitness for binding parS DNA
1 | WEYT | ≤ 0.2
2 | SKNL | ≤ 0.2
3 | PVPI | ≤ 0.2
4 | QYMT | ≤ 0.2
5 | RRNQ | ≤ 0.2
6 | PFNS | ≤ 0.2
7 | RFCP | ≤ 0.2
8 | DPLK | ≤ 0.2
9 | RMAH | 0.282
10 | QFKR | ≤ 0.2
11 | EHVC | ≤ 0.2
12 | GCAR | ≤ 0.2
13 | KRKW | ≤ 0.2
14 | HRSI | ≤ 0.2
15 | SVST | ≤ 0.2
16 | PQSC | ≤ 0.2
17 | HVPR | ≤ 0.2
18 | TSDL | ≤ 0.2
19 | YHHT | ≤ 0.2
20 | IALS | ≤ 0.2
21 | TQKC | ≤ 0.2
22 | KSTL | ≤ 0.2
23 | GYGY | ≤ 0.2
24 | KPPM | ≤ 0.2

Row | Variant | one-hybrid fitness for binding parS DNA
25 | SQGA | ≤ 0.2
26 | QWTY | ≤ 0.2
27 | YILS | ≤ 0.2
28 | TLHT | ≤ 0.2
29 | VIWG | ≤ 0.2
30 | PQMW | ≤ 0.2
31 | GPGN | ≤ 0.2
32 | NIDM | ≤ 0.2
33 | RLRM | 0.376
34 | HWPE | ≤ 0.2
35 | SVVF | ≤ 0.2
36 | RNQV | ≤ 0.2
37 | CSHP | ≤ 0.2
38 | PMRG | ≤ 0.2
39 | RKMY | 0.386
40 | DYYM | ≤ 0.2
41 | RKLT | 0.856
42 | AFMR | ≤ 0.2
43 | KCMR | ≤ 0.2
44 | DCQR | ≤ 0.2
45 | CELM | ≤ 0.2
46 | GNDD | ≤ 0.2
47 | SLPM | ≤ 0.2
48 | QPGS | ≤ 0.2

Row | Variant | one-hybrid fitness for binding parS DNA
49 | IMEV | ≤ 0.2
50 | RRAS | 0.652
51 | GTHP | ≤ 0.2
52 | LHLM | ≤ 0.2
53 | RSPK | ≤ 0.2
54 | RMNF | 0.237
55 | TMSL | ≤ 0.2
56 | ASIL | ≤ 0.2
57 | KLNR | ≤ 0.2
58 | RDPS | ≤ 0.2
59 | MDEC | ≤ 0.2
60 | TTFC | ≤ 0.2
61 | TMQR | ≤ 0.2
62 | PDLM | ≤ 0.2
63 | FDLM | ≤ 0.2
64 | DART | ≤ 0.2
65 | HGLF | ≤ 0.2
66 | QVKF | ≤ 0.2
67 | CKHT | ≤ 0.2
68 | ISYG | ≤ 0.2
69 | AQMG | ≤ 0.2
70 | IYRY | ≤ 0.2
71 | TDLC | ≤ 0.2
72 | QRSP | ≤ 0.2

Row | Variant | one-hybrid fitness for binding parS DNA
73 | MSYV | ≤ 0.2
74 | FGRC | ≤ 0.2
75 | MPTR | ≤ 0.2
76 | HLPD | ≤ 0.2
77 | QSMN | ≤ 0.2
78 | TYRK | ≤ 0.2
79 | RDRV | ≤ 0.2
80 | LAQV | ≤ 0.2
81 | THHM | ≤ 0.2
82 | LCDV | ≤ 0.2
83 | KFNR | ≤ 0.2
84 | QWAK | ≤ 0.2
85 | CRSQ | ≤ 0.2
86 | VQTI | ≤ 0.2
87 | KKLN | ≤ 0.2
88 | NDRD | ≤ 0.2
89 | SSET | ≤ 0.2
90 | LLVY | ≤ 0.2
91 | MACT | ≤ 0.2
92 | GSWY | ≤ 0.2
93 | CLKH | ≤ 0.2
94 | EYAP | ≤ 0.2
95 | HLCR | ≤ 0.2
96 | NETL | ≤ 0.2

Row | Variant | one-hybrid fitness for binding parS DNA
97 | PWNS | ≤ 0.2
98 | QTAS | ≤ 0.2
99 | NSGN | ≤ 0.2
100 | GWMY | ≤ 0.2
101 | KWNS | ≤ 0.2
102 | ERLL | ≤ 0.2
103 | CTNT | ≤ 0.2
104 | SPLW | ≤ 0.2
105 | RNKN | 0.354
106 | QVST | ≤ 0.2
107 | VNIG | ≤ 0.2
108 | NRNN | ≤ 0.2
109 | VHRH | ≤ 0.2
110 | WYHM | ≤ 0.2
111 | SHNL | ≤ 0.2
112 | WGTF | ≤ 0.2
113 | RLAP | ≤ 0.2
114 | HLAF | ≤ 0.2
115 | RNGQ | ≤ 0.2
116 | QESF | ≤ 0.2
117 | VESI | ≤ 0.2
118 | TETV | ≤ 0.2
119 | ITFI | ≤ 0.2
120 | TYMP | ≤ 0.2

Row | Variant | one-hybrid fitness for binding parS DNA
121 | RMIK | ≤ 0.2
122 | PFRA | ≤ 0.2
123 | GGQP | ≤ 0.2
124 | YEHR | ≤ 0.2
125 | IYAT | ≤ 0.2
126 | SKRM | ≤ 0.2
127 | HDFS | ≤ 0.2
128 | PKKV | ≤ 0.2
129 | VTIL | ≤ 0.2
130 | NRIQ | ≤ 0.2
131 | RQKG | 0.939
132 | QLAW | ≤ 0.2
133 | SMTA | ≤ 0.2
134 | WHLM | ≤ 0.2
135 | GAAV | ≤ 0.2
136 | AHWG | ≤ 0.2
137 | EYNS | ≤ 0.2
138 | TIDA | 0.235
139 | TCAH | ≤ 0.2
140 | DCAF | ≤ 0.2
141 | NTYC | ≤ 0.2
142 | GIRS | ≤ 0.2
143 | QDIE | ≤ 0.2
144 | RFKM | 0.357

Row | Variant | one-hybrid fitness for binding parS DNA
145 | INAM | ≤ 0.2
146 | QNHN | ≤ 0.2
147 | FWMS | ≤ 0.2
148 | QNDL | ≤ 0.2
149 | RHLE | ≤ 0.2
150 | GRNW | ≤ 0.2
151 | SVSN | ≤ 0.2
152 | QAAA | ≤ 0.2
153 | KMDF | ≤ 0.2
154 | IRTY | ≤ 0.2
155 | RARK | ≤ 0.2
156 | PEHR | ≤ 0.2
157 | PPWY | ≤ 0.2
158 | LDYR | ≤ 0.2
159 | GYYT | ≤ 0.2
160 | RLFQ | ≤ 0.2
161 | LVDG | ≤ 0.2
162 | DHDN | 0.256
163 | NYRH | ≤ 0.2
164 | SYNI | ≤ 0.2
165 | AFNC | ≤ 0.2
166 | FANW | ≤ 0.2
167 | YNRR | ≤ 0.2
168 | HCLN | ≤ 0.2

Row | Variant | one-hybrid fitness for binding parS DNA
169 | SRNF | ≤ 0.2
170 | TMLF | ≤ 0.2
171 | NGGA | 0.325
172 | ERVE | ≤ 0.2
173 | VDPN | ≤ 0.2
174 | QRNA | ≤ 0.2
175 | VSTY | ≤ 0.2
176 | PSTY | ≤ 0.2
177 | PRLN | ≤ 0.2
178 | KWWG | ≤ 0.2
179 | WQPR | ≤ 0.2
180 | KQPI | ≤ 0.2
181 | PNPD | ≤ 0.2
182 | LSCC | ≤ 0.2
183 | MVKV | ≤ 0.2
184 | SYEV | ≤ 0.2
185 | AKHW | ≤ 0.2
186 | RNEK | ≤ 0.2
187 | RQNF | 0.216
188 | TGAL | ≤ 0.2
189 | TFNM | ≤ 0.2
190 | QSFE | ≤ 0.2
191 | TGYF | ≤ 0.2
192 | GKTI | ≤ 0.2

Row | Variant | one-hybrid fitness for binding parS DNA
193 | VPNK | ≤ 0.2
194 | PINE | ≤ 0.2
195 | TPLP | ≤ 0.2
196 | KKVT | ≤ 0.2
197 | EFAA | ≤ 0.2
198 | LMQT | ≤ 0.2
199 | QHGE | ≤ 0.2
200 | FSLT | ≤ 0.2
201 | PWVD | ≤ 0.2
202 | YSME | ≤ 0.2
203 | AMRT | ≤ 0.2
204 | QRWF | ≤ 0.2
205 | ENQI | ≤ 0.2
206 | DRQR | ≤ 0.2
207 | GMDI | ≤ 0.2
208 | PGHQ | ≤ 0.2
209 | ECMV | ≤ 0.2
210 | RNVG | 0.619
211 | PMRP | ≤ 0.2
212 | AFMC | ≤ 0.2
213 | NAYR | ≤ 0.2
214 | NENV | ≤ 0.2
215 | NINL | ≤ 0.2
216 | FNDS | ≤ 0.2

Row | Variant | one-hybrid fitness for binding parS DNA
217 | EIGR | ≤ 0.2
218 | VWTN | ≤ 0.2
219 | TAES | ≤ 0.2
220 | KEIS | ≤ 0.2
221 | NCTR | ≤ 0.2
222 | ALTF | ≤ 0.2
223 | ELVV | ≤ 0.2
224 | QGHV | ≤ 0.2
225 | QYLF | ≤ 0.2
226 | FHAG | ≤ 0.2
227 | CEPP | ≤ 0.2
228 | YPLP | ≤ 0.2
229 | RRNR | ≤ 0.2
230 | APHQ | ≤ 0.2
231 | YLDD | ≤ 0.2
232 | WLEY | ≤ 0.2
233 | MNRA | ≤ 0.2
234 | PEAF | ≤ 0.2
235 | CYPF | ≤ 0.2
236 | TLLR | ≤ 0.2
237 | RCQY | 0.493
238 | EAYD | ≤ 0.2
239 | CGGR | ≤ 0.2
240 | LDYG | ≤ 0.2

Row | Variant | one-hybrid fitness for binding parS DNA
241 | WQKR | ≤ 0.2
242 | TTMR | ≤ 0.2
243 | GNDL | ≤ 0.2
244 | SYNG | ≤ 0.2
245 | NETS | ≤ 0.2
246 | RVIY | 0.394
247 | CMDR | ≤ 0.2
248 | QETD | ≤ 0.2
249 | KYGS | ≤ 0.2
250 | CPPG | ≤ 0.2
251 | PRLG | ≤ 0.2
252 | LNNE | ≤ 0.2
253 | AKHV | ≤ 0.2
254 | SMVC | ≤ 0.2
255 | SGFC | ≤ 0.2
256 | ALKV | ≤ 0.2
257 | DWKE | ≤ 0.2
258 | TDQA | ≤ 0.2
259 | PIRV | ≤ 0.2
260 | PKLN | ≤ 0.2
261 | ALCR | ≤ 0.2
262 | RMHW | 0.256
263 | QDQP | ≤ 0.2
264 | QCNV | ≤ 0.2

Row | Variant | one-hybrid fitness for binding parS DNA
265 | IGCG | ≤ 0.2
266 | VFSF | ≤ 0.2
267 | PCRT | ≤ 0.2
268 | QEQS | ≤ 0.2
269 | YKRY | ≤ 0.2
270 | AMDR | ≤ 0.2
271 | PYQA | ≤ 0.2
272 | PQPY | ≤ 0.2
273 | WSLQ | ≤ 0.2
274 | HKYT | ≤ 0.2
275 | CYDS | ≤ 0.2
276 | GWYG | ≤ 0.2
277 | PYQG | ≤ 0.2
278 | SDYI | ≤ 0.2
279 | NTKP | ≤ 0.2
280 | VCMM | ≤ 0.2
281 | GWMV | ≤ 0.2
282 | VPDT | ≤ 0.2
283 | FWTR | ≤ 0.2
284 | CNWS | ≤ 0.2
285 | TSKT | ≤ 0.2
286 | TIFR | ≤ 0.2
287 | QGGC | ≤ 0.2
288 | LMYA | ≤ 0.2

Row | Variant | one-hybrid fitness for binding parS DNA
289 | HRAN | ≤ 0.2
290 | TQFI | ≤ 0.2
291 | FFNM | ≤ 0.2
292 | SVNM | ≤ 0.2
293 | YESV | ≤ 0.2
294 | NHQM | ≤ 0.2
295 | PRLD | ≤ 0.2
296 | PWAM | ≤ 0.2
297 | DQPY | ≤ 0.2
298 | THIW | ≤ 0.2
299 | RTRT | 0.747
300 | DWQR | ≤ 0.2
301 | HAGY | ≤ 0.2
302 | EAAG | ≤ 0.2
303 | ESGR | ≤ 0.2
304 | AIAG | ≤ 0.2
305 | FRYF | ≤ 0.2
306 | ATVK | ≤ 0.2
